Source: PubChem BioAssay AID651820 (National Center for Advancing Translational Sciences (NCATS), 2012)
Out of some 340,000 compounds screened, about 12,000 (3.5%) were called active. Inconclusive results, whose numbers are uncertain, are shown with a selection of clear calls. Calls follow the shape of the dose curve; as a rule, active = well fitted inhibition curve with a large enough effect; inconclusive = small, poorly fitted or top-dose-only effect, or another doubt; inactive = no such curve, though single readings can be large or run the other way. Potencies of inconclusive entries are left out as doubtful fits.

assay: qHTS Assay for Inhibitors of Hepatitis C Virus (HCV); settings: Huh7.5.1 HCVcc-Cre (HCVcc is cell-culture hepatitis C virus) infection, luciferase reporter, 44 h; activity change, negative = inhibition: at 41.8 µM (top of the series) unless noted
Procedure, shortened: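 Seed cells (1,000/well) for 4 h; treat with compound and infect with HCVcc-Cre, moi about 0.5. Incubate 44 h, then detect luciferase activity.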
% is scaled to controls: 0 for no effect and ±100 for the full control effect; potency is read from the fitted curve at half-maximal effect; tags tell the direction and shape of the fitted curve.

SMILES | Potency | activity change, negative = inhibition
Cc1ccc(NC(=O)c2cc(-n3cnnc3)ccc2Cl)cc1 | inconclusive [inhibitor, partial curve] | 
CC(=O)c1sc(NS(=O)(=O)c2ccc(C)cc2)nc1C |  | inactive: 4.44%
Cc1cc(C)n(/N=C/c2ccc(O)cc2)c(=O)c1C#N | inconclusive [inhibitor, single point] | 
CC1C(=O)N2CCCc3cc(NC(=O)COc4ccccc4)cc1c32 (stereo not given) | inconclusive [inhibitor, single point] | 
O=C(CSc1nc2ccccc2[nH]1)Nc1cccc(S(=O)(=O)N2CCOCC2)c1 | inconclusive [inhibitor, single point] | 
COc1ccc(S(=O)(=O)N2CCOCC2)cc1NC(=O)CN1CCCc2ccccc21 | inconclusive [inhibitor, single point] | 
Cc1ccc(NC(=O)c2cccc(NC(=O)CC3SC(N4CCCCC4)=NC3=O)c2)nc1 (stereo not given) | inconclusive [inhibitor, single point] | 
O=C(CNS(=O)(=O)c1cccc(Br)c1)NCC1CCCCC1 |  | inactive: 14.1%
C#CCOCCOCCOCCNc1nc(N2CCN(C(=O)CCCCCCCCCCNC(=O)[C@@H](CCSC)n3cc(CCO)nn3)CC2)nc(N2CCN(C(=O)CCCCCCCCCCNC(=O)[C@H](CO)n3cc(CCCCCN)nn3)CC2)n1 | inconclusive [inhibitor, single point] | 
Cc1ccc(-c2cc(C(=O)Nc3cccc(S(=O)(=O)N(C)C)c3)c3ccccc3n2)o1 | inconclusive [inhibitor, single point] | 
Cc1ccccc1NC(=O)COc1coc(CN2CCCc3ccccc32)cc1=O | inconclusive [inhibitor, partial curve] | 
CCC(C)c1ccc(NC(=O)C2CCN(c3ncccn3)CC2)cc1 (stereo not given) | inconclusive [inhibitor, partial curve] | 
COc1cc(Br)cc(C2C3=C(CCCC3=O)N(c3ccc(F)cc3)C3=C2C(=O)CCC3)c1O | inconclusive [inhibitor, partial curve] | 
O=[N+]([O-])c1cccc(/C=C/c2nc[nH]c2[N+](=O)[O-])c1 |  | inactive: 4.02%
CN(C)c1cccc(C(=O)Nc2ccc(S(=O)(=O)Nc3nccs3)cc2)c1 | inconclusive [inhibitor, single point] | 
O=C1CN(C(=O)c2ccccc2)C(c2ccccc2)c2cc(F)ccc2N1 (stereo not given) |  | inactive: 4.25%
COc1cc(C(=O)OC(C)C(=O)NC(=O)NC2CCCCC2)ccc1OC(F)F (stereo not given) | inconclusive [inhibitor, single point] | 
Cc1ccc(/C=C2\SC(=S)N(CCC(=O)NNC(=O)c3ccccc3O)C2=O)cc1 | inconclusive [inhibitor, single point] | 
Cc1ccc([N+](=O)[O-])cc1S(=O)(=O)Nc1ccc(-c2ccc(N3CCCC3)nn2)cc1 | inconclusive [inhibitor, single point] | 
Cc1onc(-c2ccccc2Cl)c1C(=O)Nc1nnc(-c2cccc([N+](=O)[O-])c2)s1 |  | inactive: 3.8%
Cc1[nH]n(-c2cccc([N+](=O)[O-])c2)c(=O)c1-c1ccccc1 |  | inactive: -0.108%
Cc1ccc2c(c1)C(c1ccccc1)N(C(=O)c1c(F)cccc1Cl)CC(=O)N2 (stereo not given) | inconclusive [inhibitor, single point] | 

SMILES | Potency | activity change, negative = inhibition
COc1cc(OC)cc(C(=O)Nc2ncc3c(n2)CC(C)CC3=O)c1 (stereo not given) | inconclusive [inhibitor, partial curve, poor fit] | 
CC(OC(=O)c1ccccc1)C(=O)NCc1ccco1 (stereo not given) |  | inactive: 4.47%
CC(C)(O)C#Cc1ccc(C(=O)N2CCN(c3ccc(Cl)cc3)CC2)cc1 |  | inactive: 5.88%
Cc1cccc(NC(=O)c2ccc(C3SCC(=O)N3CCc3ccccc3)cc2)c1 (stereo not given) | inconclusive [inhibitor, single point] | 
CCNc1nc(NCC)n2c(SC(C(=O)Nc3cc(C)ccc3C)c3ccccc3)nnc2n1 (stereo not given) | inconclusive [inhibitor, partial curve] | 
O=C(Nc1ccc(Cl)cc1)c1nc[nH]c1C(=O)NCCCNC(=O)c1[nH]cnc1C(=O)Nc1ccc(Cl)cc1 |  | inactive: 21.3%
CC(C)(C)CNc1cc(N2CCOCC2)ccc1[N+](=O)[O-] | inconclusive [inhibitor, partial curve] | 
CSc1ncc(C(=O)Nc2ccc(C(C)=O)cc2)c(C)n1 |  | inactive: -28%
COc1ccccc1OCC(=O)NNc1c2ccccc2nc2ccccc12 | active: 0.562 µM | 
O=C(Nc1ccc2c(c1)CCCN2C(=O)c1cccs1)c1c(F)cccc1Cl | inconclusive [inhibitor, single point] | 
Cn1ccnc1C(OC(=O)c1ccc(Cl)cc1)C(F)(F)F (stereo not given) |  | inactive: -24.6%
CCCCNC(=S)Nc1ccccc1Cc1ccccc1 | inconclusive [inhibitor, full curve] | 
Cc1ccc(S(=O)(=O)N[C@H](C(=O)OCC(=O)N2N=C(c3ccc(Cl)cc3)CC2c2ccco2)C(C)C)cc1 (stereo not given in full) | active: 12.6 µM | 
COc1ccc(NC(C)C(=O)Nc2ccc(C(C)(C)C)cc2)cc1Cl (stereo not given) | inconclusive [inhibitor, single point] | 
CCCC(=O)NC(=S)Nc1cccc(NC(=O)c2ccc(Cl)cc2Cl)c1 | inconclusive [inhibitor, full curve, poor fit] | 
C/C=C/C(=O)N1CC2(CC(c3cccc(NC(=O)/C(C)=C/C)c3)=NO2)C[C@H]1C(N)=O (stereo not given in full) | inconclusive [inhibitor, single point] | 
Cc1ccccc1NC(=O)CCCSc1nc2ccccc2s1 |  | inactive: -24.2%
COc1ccc(CC2NCC(O)C2OC(C)=O)cc1 (stereo not given) | active: 0.562 µM | 
CCn1c(SCC(=O)Nc2ccc(C(C)=O)cc2)nc2nc3c(cc2c1=O)CCCC3 | inconclusive [inhibitor, partial curve] | 
CCCCCCNCC(=O)N1CCC(Cc2ccccc2)CC1 | inconclusive [inhibitor, single point] | 
CCOc1ccc(NC(=O)CN(C)C(=O)CC2CCCCC2)cc1OCC | inconclusive [inhibitor, partial curve] | 
OCC1(Cc2cccc(Cl)c2)CCCN(Cc2cn[nH]c2C2CCCCC2)C1 (stereo not given) |  | inactive: -1.06%

SMILES | Potency | activity change, negative = inhibition
COc1ccccc1NS(=O)(=O)c1cc(NC(=O)c2ccccc2F)ccc1N1CCOCC1 | inconclusive [inhibitor, partial curve, poor fit] | 
COc1ccc(C2=CC(=O)C[C@H](c3ccc(Cl)cc3)C2)cc1 | inconclusive [inhibitor, partial curve] | 
CC1CN(c2nc(-c3ccc(Br)cc3)nnc2-c2ccccc2)CC(C)N1 (stereo not given) | inconclusive [inhibitor, single point] | 
COCCNC(=O)CSc1nc2cc(OC)c(OC)cc2c(=O)n1Cc1ccc(OC)cc1 |  | inactive: -6.19%
CC(C)(C)OC(=O)C[C@@H]1C/C=C\C[C@@H](CC(=O)N(CCO)Cc2ccccc2)C(=O)N2CCC[C@@H]2COC1=O |  | inactive: 5.24%
Fc1c(F)c(F)c(/C=N/NC(=S)Nc2cccnc2)c(F)c1F | inconclusive [inhibitor, single point] | 
COc1ccc(N2CCN(C(=O)CSc3nnc4ncccn34)CC2)cc1 | inconclusive [inhibitor, partial curve] | 
Cc1noc(/C=C/c2ccco2)c1S(=O)(=O)N1CCC(C(=O)NC(C)c2ccccc2)CC1 (stereo not given) | inconclusive [inhibitor, partial curve] | 
O=C(CSc1nc2ccccc2c(=O)n1Cc1ccco1)Nc1cccc(O)c1 | inconclusive [inhibitor, single point] | 
CC1CN(CCCCOc2ccc(Cl)c3ccccc23)CC(C)O1 (stereo not given) | inconclusive [inhibitor, single point] | 
Cc1cccc2cc(CN(Cc3ccco3)C(=O)Nc3cccc(C#N)c3)c(Cl)nc12 | inconclusive [inhibitor, partial curve] | 
CCCCCc1cc(=O)oc2c(C(CCN3CCN(c4ccccc4)CC3)c3ccc4c(c3)OCO4)c(OC)cc(OC)c12 (stereo not given) | inconclusive [inhibitor, partial curve, poor fit] | 
CCOc1ccc(/C=C/[N+](=O)[O-])c2ccccc12 | inconclusive [inhibitor, single point] | 
O=C(NCC1CCCO1)c1ccc2c3n(nc2c1)-c1ccccc1CO3 (stereo not given) | inconclusive [inhibitor, single point] | 
COc1ccc(-c2sc3ccc(OC)cc3c2-c2ccc(OCCN3CCOCC3)cc2)cc1 | inconclusive [inhibitor, single point] | 
Cc1ccc(C2CC(=O)NC(SCCC(C)C)=C2C#N)cc1 (stereo not given) | inconclusive [inhibitor, single point] | 
COc1cc(-c2nnc(SCc3cc(=O)oc4cc(O)c(O)cc34)o2)cc(OC)c1OC | inconclusive [inhibitor, single point] | 
COc1ccc(C(CNC(=O)c2cc3c(s2)CCC(C)C3)N2CCOCC2)cc1 (stereo not given) | inconclusive [inhibitor, full curve] | 
CCc1ccccc1N1CC23C=CC(O2)C(C(=O)O)C3C1=O (stereo not given) |  | inactive: 11.9%
N#Cc1ccsc1NC(=O)c1cccc([N+](=O)[O-])c1 | active: 10 µM | 
O=C(Nc1cccc(C(F)(F)F)c1)c1cccnc1N1CCCC1 | inconclusive [inhibitor, single point] | 
